Source: PubChem BioAssay (NCI)
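Tested at 5 concentrations; 48 h exposure; 96-well plates; endpoints linearly interpolated, else capped at highest concentration. At the GI50, growth is halved.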 Not every entry of the source has a single result; some have several. The other results are left out here. There may be further records. For part of these data: A record mostly stands for its own series of concentrations, which the source does not state; some values may only mark the edge of a range. For part of these data: Values given together are repeats (runs, samples, wells, individuals or studies). What stands in brackets tells the records apart. The letters are not those of the source and start again with each entry.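 The concentration for full growth arrest is given as TGI.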

Tests used:
Assay in all cases: growth of human tumour cells (NCI), 48 h
MCF7 breast = test system: MCF7 breast
RXF 393 renal = test system: RXF 393 renal
SF-295 CNS = test system: SF-295 CNS
SF-539 CNS = test system: SF-539 CNS
SNB-75 CNS = test system: SNB-75 CNS
SR leukemia = test system: SR leukemia
786-0 renal = test system: 786-0 renal
CCRF-CEM leukemia = test system: CCRF-CEM leukemia
HS 578T breast = test system: HS 578T breast
K-562 leukemia = test system: K-562 leukemia
KM12 colon = test system: KM12 colon
LOX IMVI melanoma = test system: LOX IMVI melanoma
MOLT-4 leukemia = test system: MOLT-4 leukemia
NCI-H460 lung = test system: NCI-H460 lung
NCI-H522 lung = test system: NCI-H522 lung
NCI/ADR-RES ovarian = test system: NCI/ADR-RES ovarian
PC-3 prostate = test system: PC-3 prostate
RPMI-8226 leukemia = test system: RPMI-8226 leukemia
SK-MEL-5 melanoma = test system: SK-MEL-5 melanoma
SW-620 colon = test system: SW-620 colon
U251 CNS = test system: U251 CNS
UACC-62 melanoma = test system: UACC-62 melanoma
UO-31 renal = test system: UO-31 renal
IGROV1 ovarian = test system: IGROV1 ovarian
M14 melanoma = test system: M14 melanoma
ACHN renal = test system: ACHN renal
OVCAR-5 ovarian = test system: OVCAR-5 ovarian
SF-268 CNS = test system: SF-268 CNS

## CCN(CCO)CCCOc1ccc2c(Nc3cc(CC(=O)Nc4cccc(F)c4)[nH]n3)ncnc2c1
MCF7 breast
  GI50: 4.36 µM [sample A, mean of 2 tests] and 79.4 nM [sample B, mean of 2 tests]
RXF 393 renal
  GI50: 30.5 µM [sample A, mean of 2 tests] and 25 nM [sample B, 1 test]
  TGI: > 94.6 µM [sample A, mean of 2 tests] and 122 nM [sample B, 1 test]
SF-295 CNS
  GI50: 14.8 µM [sample A, mean of 2 tests] and 186 nM [sample B, mean of 2 tests]
SF-539 CNS
  GI50: 1.95 µM [sample A, mean of 2 tests] and 142 nM [sample B, mean of 2 tests]
SNB-75 CNS
  GI50: 3.61 µM [sample A, mean of 2 tests] and 24.3 nM [sample B, 1 test]
  TGI: 55.9 µM [sample A, mean of 2 tests] and 262 nM [sample B, 1 test]
SR leukemia
  GI50: 723 nM [sample A, 1 test] and 16.2 nM [sample B, mean of 2 tests]

## COc1cc(/C=C/c2cc(O)c(C/C=C(\C)CC/C=C(\C)CO)c(O)c2)cc2c1O[C@]1(C)CC[C@@H](O)C(C)(C)[C@H]1C2
786-0 renal
  TGI: 1.2 µM [1 test] and > 100 µM [mean of 2 tests]
CCRF-CEM leukemia
  GI50: 214 nM and 2.43 µM
  TGI: 4.45 µM and > 100 µM
HS 578T breast
  GI50: 62.7 nM [1 test] and 1.08 µM [mean of 2 tests]
  TGI: 895 nM [1 test] and 10.2 µM [mean of 2 tests]
K-562 leukemia
  GI50: 268 nM [1 test] and 4.88 µM [mean of 2 tests]
  TGI: 2.39 µM [1 test] and > 33.5 µM [mean of 2 tests]
KM12 colon
  GI50: 1.55 µM [1 test] and > 69.1 µM [mean of 2 tests]
LOX IMVI melanoma
  GI50: 329 nM [1 test] and 10.9 µM [mean of 2 tests]
  TGI: 3.83 µM [1 test] and 42.5 µM [mean of 2 tests]
MCF7 breast
  GI50: 341 nM [1 test] and 17.7 µM [mean of 2 tests]
  TGI: 4.57 µM [1 test] and > 83.8 µM [mean of 2 tests]
MOLT-4 leukemia
  GI50: 31.1 nM [1 test] and 3.44 µM [mean of 2 tests]
NCI-H460 lung
  GI50: 313 nM [1 test] and 10.7 µM [mean of 2 tests]
NCI-H522 lung
  GI50: 4.53 µM [1 test] and > 63.2 µM [mean of 2 tests]
  TGI: 8.7 µM [1 test] and > 100 µM [mean of 2 tests]
NCI/ADR-RES ovarian
  GI50: 7.99 µM [1 test] and > 82.4 µM [mean of 2 tests]
PC-3 prostate
  GI50: 68.8 nM [1 test] and 11.2 µM [mean of 2 tests]
RPMI-8226 leukemia
  GI50: 3.25 nM and 428 nM
  TGI: 28.8 nM and 2.54 µM
RXF 393 renal
  GI50: 357 nM and 19.6 µM
SK-MEL-5 melanoma
  GI50: 260 nM [1 test] and 5.22 µM [mean of 2 tests]
  TGI: 1.92 µM [1 test] and 21.9 µM [mean of 2 tests]
SW-620 colon
  TGI: 6.07 µM [1 test] and > 89.7 µM [mean of 2 tests]
U251 CNS
  GI50: 267 nM [1 test] and 3.23 µM [mean of 2 tests]
UACC-62 melanoma
  GI50: 229 nM [1 test] and 5.52 µM [mean of 2 tests]
  TGI: 1.39 µM [1 test] and 27 µM [mean of 2 tests]
UO-31 renal
  TGI: 3.5 µM [1 test] and > 100 µM [mean of 2 tests]

## CNc1ncc2cc(-c3cc(NC(=O)NCCC(C)(C)C)c(F)cc3C)c(C)nc2n1
IGROV1 ovarian
  TGI: 17.4 µM [sample A, mean of 2 tests] and 1.28 µM [sample B, mean of 2 tests]
M14 melanoma
  TGI: 165 nM [sample A, mean of 2 tests] and > 2.03 µM [sample B, mean of 2 tests]

## COC(=O)c1ccc2c(C(=Nc3ccc(N(C)C(=O)CN4CCN(C)CC4)cc3)c3ccccc3)c(O)[nH]c2c1
ACHN renal
  TGI: 6.41 µM [sample A, mean of 3 tests] and > 100 µM [sample B, mean of 2 tests]
HS 578T breast
  TGI: 5.11 µM [sample A, mean of 3 tests] and > 62.6 µM [sample B, mean of 2 tests]
OVCAR-5 ovarian
  TGI: 9.74 µM [sample A, mean of 2 tests] and > 100 µM [sample B, mean of 2 tests]
SF-268 CNS
  TGI: 5.3 µM [sample A, mean of 3 tests] and > 100 µM [sample B, 1 test]
U251 CNS
  TGI: 6.79 µM [sample A, mean of 2 tests] and > 100 µM [sample B, 1 test]

## CCc1ccc([O-])c(C=NCCCN(C)CCCN=Cc2cc(C)ccc2[O-])c1.[Co+3].[N-]=[N+]=[N-]
K-562 leukemia
  TGI: 5 µg/mL [1 test] and > 150 µg/mL [mean of 2 tests]
SNB-75 CNS
  TGI: 4.96 µg/mL [1 test] and 32.4 µg/mL [mean of 2 tests]
